# In the supplement of paper PMC8728848:
# The other results are listed elsewhere or left out.
# B1: PX14375C-bth-509-28-509 (Bacteroides thetaiotaomicron) (protein)
# chain: RSPQGQFTEDDNPNALVNGKIYNVYTMMRSFDITAGTPAIAIHYLRSEDSEKGSIPSDGSDVAEMYDDFLYTPTNGLLGSYWGKNYAIIYQCNDILDAIAEKETAGQTETEDIINKGEASFFRAYCYFNLVRAFGEVPLVTYKINDASEANIPKTTADKIYEQIDTDLKTAEESLPETWSTEYTGRLTWGAARSLHARTYMMRSDWDNMYKASTDVINKGLYNLKTPYNEIFTDDGENSGGSIFELQCTATAALPQSDVIGSQFCEVQGVRGAGQWDLGWGWHMATQLMADAYETGDPRKNATLLYFRKTDDEPITPENTNEPYGESPISPAMGAYFNKKAYTDPALRKEYTNKGFWVNIRLIRYSDVVLMAAEAANEKNIPGEAVDYLEMVRARARGTNTNILPKITTNDQGELREAIRHERRVELGLEPDRFYDLVRWGIASEVLHAAGKVNYQDKNALLPLPQSEIDKSKGVLVQNPDY
# How the values were obtained:
# Assay in all cases: glycan array binding signal (z-score within array); higher = stronger binding
# Details in all cases: glycan notation: IUPAC condensed, linker removed
# [1] = molecular target: Fuc(a1-2)Gal6S(b1-3)GlcNAc6S
# Outline: (§1)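 The Consortium for Functional Glycomics database supplied 3228 glycan arrays, of which those lacking an available protein sequence were dropped. The binding signal, a within-array Z-score, was averaged across arrays of the same protein sequence and across linkers. Negative scores can be read as non-binding.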
# Fuc(a1-2)Gal6S(b1-4)Glc = molecular target: Fuc(a1-2)Gal6S(b1-4)Glc
# Outline: as §1
# [2] = molecular target: Fuc(a1-2)Gal6S(b1-4)Glc6S
# Outline: as §1
# Fuc(a1-2)[Gal(a1-3)]Gal = molecular target: Fuc(a1-2)[Gal(a1-3)]Gal
# Outline: as §1
# [3] = molecular target: Fuc(a1-2)[Gal(a1-3)]Gal(b1-3)GalNAc
# Outline: as §1
# [4] = molecular target: Fuc(a1-2)[Gal(a1-3)]Gal(b1-3)GalNAc(b1-3)Gal(a1-4)Gal(b1-4)Glc
# Outline: as §1
# [5] = molecular target: Fuc(a1-2)[Gal(a1-3)]Gal(b1-3)GlcNAc
# Outline: as §1
# [6] = molecular target: Fuc(a1-2)[Gal(a1-3)]Gal(b1-3)GlcNAc(b1-2)Man(a1-3)[Fuc(a1-2)[Gal(a1-3)]Gal(b1-3)GlcNAc(b1-2)Man(a1-6)]Man(b1-4)GlcNAc(b1-4)GlcNAc
# Outline: as §1
# [7] = molecular target: Fuc(a1-2)[Gal(a1-3)]Gal(b1-3)GlcNAc(b1-2)Man(a1-3)[Fuc(a1-2)[Gal(a1-3)]Gal(b1-3)GlcNAc(b1-2)Man(a1-6)]Man(b1-4)GlcNAc(b1-4)[Fuc(a1-6)]GlcNAc
# Outline: as §1
# [8] = molecular target: Fuc(a1-2)[Gal(a1-3)]Gal(b1-3)GlcNAc(b1-3)GalNAc
# Outline: as §1
# [9] = molecular target: Fuc(a1-2)[Gal(a1-3)]Gal(b1-3)GlcNAc(b1-6)GalNAc
# Outline: as §1
# [10] = molecular target: Fuc(a1-2)[Gal(a1-3)]Gal(b1-4)Glc
# Outline: as §1
# [11] = molecular target: Fuc(a1-2)[Gal(a1-3)]Gal(b1-4)GlcNAc
# Outline: as §1
# [12] = molecular target: Fuc(a1-2)[Gal(a1-3)]Gal(b1-4)GlcNAc(b1-2)Man
# Outline: as §1
# [13] = molecular target: Fuc(a1-2)[Gal(a1-3)]Gal(b1-4)GlcNAc(b1-2)Man(a1-3)[Fuc(a1-2)[Gal(a1-3)]Gal(b1-4)GlcNAc(b1-2)Man(a1-6)]Man(b1-4)GlcNAc(b1-4)GlcNAc
# Outline: as §1
# [14] = molecular target: Fuc(a1-2)[Gal(a1-3)]Gal(b1-4)GlcNAc(b1-2)Man(a1-3)[Fuc(a1-2)[Gal(a1-3)]Gal(b1-4)GlcNAc(b1-2)Man(a1-6)]Man(b1-4)GlcNAc(b1-4)[Fuc(a1-6)]GlcNAc
# Outline: as §1
# [15] = molecular target: Fuc(a1-2)[Gal(a1-3)]Gal(b1-4)GlcNAc(b1-3)GalNAc
# Outline: as §1
# [16] = molecular target: Fuc(a1-2)[Gal(a1-3)]Gal(b1-4)GlcNAc(b1-3)[Fuc(a1-2)[Gal(a1-3)]Gal(b1-4)GlcNAc(b1-6)]GalNAc
# Outline: as §1
# [17] = molecular target: Fuc(a1-2)[Gal(a1-3)]Gal(b1-4)GlcNAc(b1-6)GalNAc
# Outline: as §1
# [18] = molecular target: Fuc(a1-2)[Gal(a1-3)]Gal(b1-4)[Fuc(a1-3)]Glc
# Outline: as §1
# [19] = molecular target: Fuc(a1-2)[Gal(a1-3)]Gal(b1-4)[Fuc(a1-3)]GlcNAc
# Outline: as §1
# [20] = molecular target: Fuc(a1-2)[Gal(a1-3)]Gal(b1-4)[Fuc(a1-3)]GlcNAc(b1-3)GalNAc
# Outline: as §1
# [21] = molecular target: Fuc(a1-2)[Gal(a1-4)]Gal(b1-4)GlcNAc
# Outline: as §1
# [22] = molecular target: Fuc(a1-2)[GalNAc(a1-3)]Gal
# Outline: as §1
# [23] = molecular target: Fuc(a1-2)[GalNAc(a1-3)]Gal(b1-3)GalNAc(a1-3)[Fuc(a1-2)]Gal(b1-4)GlcNAc
# Outline: as §1
# [24] = molecular target: Fuc(a1-2)[GalNAc(a1-3)]Gal(b1-3)GalNAc(b1-3)Gal(a1-4)Gal(b1-4)Glc
# Outline: as §1
# [25] = molecular target: Fuc(a1-2)[GalNAc(a1-3)]Gal(b1-3)GlcNAc
# Outline: as §1
# [26] = molecular target: Fuc(a1-2)[GalNAc(a1-3)]Gal(b1-3)GlcNAc(b1-2)Man(a1-3)[Fuc(a1-2)[GalNAc(a1-3)]Gal(b1-3)GlcNAc(b1-2)Man(a1-6)]Man(b1-4)GlcNAc(b1-4)GlcNAc
# Outline: as §1
# [27] = molecular target: Fuc(a1-2)[GalNAc(a1-3)]Gal(b1-3)GlcNAc(b1-2)Man(a1-3)[Fuc(a1-2)[GalNAc(a1-3)]Gal(b1-3)GlcNAc(b1-2)Man(a1-6)]Man(b1-4)GlcNAc(b1-4)[Fuc(a1-6)]GlcNAc
# Outline: as §1
# [28] = molecular target: Fuc(a1-2)[GalNAc(a1-3)]Gal(b1-3)GlcNAc(b1-3)GalNAc
# Outline: as §1
# [29] = molecular target: Fuc(a1-2)[GalNAc(a1-3)]Gal(b1-3)GlcNAc(b1-6)GalNAc
# Outline: as §1
# [30] = molecular target: Fuc(a1-2)[GalNAc(a1-3)]Gal(b1-4)Glc
# Outline: as §1
# [31] = molecular target: Fuc(a1-2)[GalNAc(a1-3)]Gal(b1-4)GlcNAc
# Outline: as §1
# [32] = molecular target: Fuc(a1-2)[GalNAc(a1-3)]Gal(b1-4)GlcNAc(b1-2)Man
# Outline: as §1
# [33] = molecular target: Fuc(a1-2)[GalNAc(a1-3)]Gal(b1-4)GlcNAc(b1-2)Man(a1-3)[Fuc(a1-2)[GalNAc(a1-3)]Gal(b1-4)GlcNAc(b1-2)Man(a1-6)]Man(b1-4)GlcNAc(b1-4)GlcNAc
# Outline: as §1
# [34] = molecular target: Fuc(a1-2)[GalNAc(a1-3)]Gal(b1-4)GlcNAc(b1-2)Man(a1-3)[Fuc(a1-2)[GalNAc(a1-3)]Gal(b1-4)GlcNAc(b1-2)Man(a1-6)]Man(b1-4)GlcNAc(b1-4)[Fuc(a1-6)]GlcNAc
# Outline: as §1
# [35] = molecular target: Fuc(a1-2)[GalNAc(a1-3)]Gal(b1-4)GlcNAc(b1-3)Gal(b1-4)GlcNAc
# Outline: as §1
# [36] = molecular target: Fuc(a1-2)[GalNAc(a1-3)]Gal(b1-4)GlcNAc(b1-3)Gal(b1-4)GlcNAc(b1-3)Gal(b1-4)GlcNAc
# Outline: as §1
# [37] = molecular target: Fuc(a1-2)[GalNAc(a1-3)]Gal(b1-4)GlcNAc(b1-3)GalNAc
# Outline: as §1
# [38] = molecular target: Fuc(a1-2)[GalNAc(a1-3)]Gal(b1-4)GlcNAc(b1-3)[Fuc(a1-2)[GalNAc(a1-3)]Gal(b1-4)GlcNAc(b1-6)]GalNAc
# Outline: as §1
# [39] = molecular target: Fuc(a1-2)[GalNAc(a1-3)]Gal(b1-4)GlcNAc(b1-6)GalNAc
# Outline: as §1
# [40] = molecular target: Fuc(a1-2)[GalNAc(a1-3)]Gal(b1-4)[Fuc(a1-3)]GlcNAc
# Outline: as §1
# [41] = molecular target: Fuc(a1-2)[GalNAc(a1-3)]Gal(b1-4)[Fuc(a1-3)]GlcNAc(b1-3)GalNAc
# Outline: as §1
# [42] = molecular target: Fuc(a1-2)[GalNAc(a1-4)]Gal(b1-4)GlcNAc
# Outline: as §1
# [43] = molecular target: Fuc(a1-2)[GalNAc(b1-3)]Gal
# Outline: as §1
binder,measurement,setting,value
B1,glycan array binding signal (z-score),[1],0.159
same,glycan array binding signal (z-score),Fuc(a1-2)Gal6S(b1-4)Glc,-0.051
same,glycan array binding signal (z-score),[2],-0.272
same,glycan array binding signal (z-score),Fuc(a1-2)[Gal(a1-3)]Gal,-0.193
same,glycan array binding signal (z-score),[3],-0.032
same,glycan array binding signal (z-score),[4],-0.177
same,glycan array binding signal (z-score),[5],-0.181
same,glycan array binding signal (z-score),[6],0.287
same,glycan array binding signal (z-score),[7],-0.336
same,glycan array binding signal (z-score),[8],-0.337
same,glycan array binding signal (z-score),[9],-0.156
same,glycan array binding signal (z-score),[10],0.04
same,glycan array binding signal (z-score),[11],-0.248
same,glycan array binding signal (z-score),[12],-0.262
same,glycan array binding signal (z-score),[13],1.12
same,glycan array binding signal (z-score),[14],0.281
same,glycan array binding signal (z-score),[15],-0.367
same,glycan array binding signal (z-score),[16],-0.383
same,glycan array binding signal (z-score),[17],-0.094
same,glycan array binding signal (z-score),[18],-0.317
same,glycan array binding signal (z-score),[19],-0.256
same,glycan array binding signal (z-score),[20],0.431
same,glycan array binding signal (z-score),[21],-0.381
same,glycan array binding signal (z-score),[22],-0.271
same,glycan array binding signal (z-score),[23],-0.112
same,glycan array binding signal (z-score),[24],-0.355
same,glycan array binding signal (z-score),[25],-0.183
same,glycan array binding signal (z-score),[26],0.437
same,glycan array binding signal (z-score),[27],-0.19
same,glycan array binding signal (z-score),[28],-0.068
same,glycan array binding signal (z-score),[29],0.008
same,glycan array binding signal (z-score),[30],-0.445
same,glycan array binding signal (z-score),[31],-0.183
same,glycan array binding signal (z-score),[32],-0.161
same,glycan array binding signal (z-score),[33],0.214
same,glycan array binding signal (z-score),[34],-0.354
same,glycan array binding signal (z-score),[35],-0.343
same,glycan array binding signal (z-score),[36],0.081
same,glycan array binding signal (z-score),[37],-0.174
same,glycan array binding signal (z-score),[38],-0.229
same,glycan array binding signal (z-score),[39],3.04
same,glycan array binding signal (z-score),[40],-0.276
same,glycan array binding signal (z-score),[41],1.72
same,glycan array binding signal (z-score),[42],0.801
same,glycan array binding signal (z-score),[43],-0.378
